# Experimental data reported in US20250367183A1, “SUBSTANCE FOR PROMOTING REGENERATION AND REPAIR OF ORGANS OF MAMMALS AND USE THEREOF” (INSTITUTE OF ZOOLOGY, CHINESE ACADEMY OF SCIENCES, priority 2022, published 2025).
# Test system: STING-TBK1-IRF3 signaling pathway
# Assay: immunofluorescence staining of STING/TBK1/IRF3 signaling
# Assay type: cell-based
# Conditions: in vitro (FIG. 4E)
smiles,measurement,value
"C[C@@H]1C[C@@H]([C@H](O)CC2CC(=O)NC(=O)C2)C(=O)[C@@H](C)C1 [CHX, 4-((R)-2-((1S,3S,5S)-3,5-dimethyl-2-oxocyclohexyl)-2-hydroxyethyl)piperidine-2,6-dione]",activation of STING-TBK1-IRF3 signaling,perinuclear enrichment of STING protein and the nuclear entry of IRF3 protein
